The text below walks through data of PMC4336329 (PLoS ONE, 2015).

The whole screen tested about 310,000 compounds, of which about 14,000 (4.5%) showed an effect of 50% or more. Effects have a minus sign here. Some of the results follow.
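Note: peak tail current of the secondary pulse compared with the same well before compound.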

Chain of human ether-à-go-go-related gene (hERG) potassium channel (Q12809 whole entry, looked up): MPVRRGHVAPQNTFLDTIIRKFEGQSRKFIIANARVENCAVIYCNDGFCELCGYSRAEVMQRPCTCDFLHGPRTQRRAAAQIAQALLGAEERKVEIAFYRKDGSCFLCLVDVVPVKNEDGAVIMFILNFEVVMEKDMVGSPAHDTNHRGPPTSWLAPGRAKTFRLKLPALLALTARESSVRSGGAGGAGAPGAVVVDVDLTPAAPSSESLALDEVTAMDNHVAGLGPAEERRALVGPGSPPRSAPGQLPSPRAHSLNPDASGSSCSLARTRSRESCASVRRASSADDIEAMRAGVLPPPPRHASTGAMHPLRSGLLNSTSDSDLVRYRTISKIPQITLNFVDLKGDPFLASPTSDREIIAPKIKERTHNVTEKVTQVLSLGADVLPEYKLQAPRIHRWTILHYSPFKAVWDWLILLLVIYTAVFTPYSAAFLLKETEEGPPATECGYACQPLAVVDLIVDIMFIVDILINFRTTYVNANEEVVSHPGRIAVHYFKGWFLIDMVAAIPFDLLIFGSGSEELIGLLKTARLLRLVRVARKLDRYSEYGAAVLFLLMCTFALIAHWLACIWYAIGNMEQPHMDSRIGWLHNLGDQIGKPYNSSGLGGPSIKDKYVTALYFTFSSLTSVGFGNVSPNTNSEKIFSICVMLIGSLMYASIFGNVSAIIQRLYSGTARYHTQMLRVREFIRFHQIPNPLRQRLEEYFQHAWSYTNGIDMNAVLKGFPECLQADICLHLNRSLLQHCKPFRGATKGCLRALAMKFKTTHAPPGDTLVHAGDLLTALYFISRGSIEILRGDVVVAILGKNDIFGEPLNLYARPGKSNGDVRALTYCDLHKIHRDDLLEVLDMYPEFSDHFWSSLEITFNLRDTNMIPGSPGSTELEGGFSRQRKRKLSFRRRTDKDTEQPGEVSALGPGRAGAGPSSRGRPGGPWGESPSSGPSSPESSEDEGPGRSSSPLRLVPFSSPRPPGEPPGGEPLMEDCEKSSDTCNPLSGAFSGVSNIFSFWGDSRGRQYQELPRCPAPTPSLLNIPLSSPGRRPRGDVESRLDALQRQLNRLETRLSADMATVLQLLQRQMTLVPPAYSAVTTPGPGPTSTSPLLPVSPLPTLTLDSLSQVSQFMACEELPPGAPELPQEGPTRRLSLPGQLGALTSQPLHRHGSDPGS

The experiment concerns the target human ether-à-go-go-related gene (hERG) potassium channel (human, UniProt Q12809). As to the kind of experiment: primary screen, population patch clamp on CHO cells stably expressing hERG.
`CSc1nc(N)nc(C2CC2)n1`: the “hERG current change (%, negative = inhibition) at 10uM” value is listed as 8.14%. With `Cc1ccccc1OCCn1c(=O)oc2ccccc21`, the “hERG current change (%, negative = inhibition) at 10uM” value is given as -3.35%.

Turning to `CC1(C)c2ccccc2N2CCC(=O)NC21/C=C/c1ccco1` (centres unmarked), the “hERG current change (%, negative = inhibition) at 10uM” value turned out to be 1.08%. Turning to `CC1CCN(S(=O)(=O)c2cccc(C(=O)NCc3cccs3)c2)CC1`, the “hERG current change (%, negative = inhibition) at 10uM” value was -38.5%. Take `O=C(OCC(=O)N1CCN(C(=O)c2ccco2)CC1)c1ccccc1Cc1ccccc1`: the “hERG current change (%, negative = inhibition) at 10uM” value is recorded as -56.3%.

Regarding `Cc1ccc(-n2nnnc2SCC(=O)NC2CCCc3ccccc32)c(C)c1` (centres unmarked), the “hERG current change (%, negative = inhibition) at 10uM” value is given as -7.69%.

As to `O=C(NC1CCCCC1)c1cc2ccccc2cc1O`, the “hERG current change (%, negative = inhibition) at 10uM” value is -12.7%.

Turning to `CCCc1cc(=O)[nH]c(SCC(=O)Nc2nc3ccc(OCC)cc3s2)n1`, the “hERG current change (%, negative = inhibition) at 10uM” value is recorded as 22.8%. With `O=S(NCc1ccccc1)C12CC3CC(CC(C3)C1)C2` (centres unmarked), the “hERG current change (%, negative = inhibition) at 10uM” value turned out to be 9.4%. As for `O=C(/C=C/c1ccccc1[N+](=O)[O-])NC1CCCC1`, the “hERG current change (%, negative = inhibition) at 10uM” value is -13.2%.

Regarding `OCC1(Cc2ccccc2)CCCN(Cc2c[nH]c3ccccc23)C1` (centres unmarked), the “hERG current change (%, negative = inhibition) at 10uM” value was -27%. `O=C(Nc1cccc([N+](=O)[O-])c1)C1COc2ccccc2O1` (centres unmarked): the “hERG current change (%, negative = inhibition) at 10uM” value is given as -86.3%.

With `CCC(CC)c1nnc(NC(=O)CS(=O)(=O)Cc2ccccc2)s1`, the “hERG current change (%, negative = inhibition) at 10uM” value is reported as 7.12%. `COc1nn(-c2ccccc2)c(=O)c(Cl)c1Cl`: the “hERG current change (%, negative = inhibition) at 10uM” value came out at 15.7%. For the compound `Cc1ccc(C)c(-n2c(SCC(=O)NC(C(=O)O)C(C)C)nnc2-c2cccc(Cl)c2)c1` (centres unmarked), the “hERG current change (%, negative = inhibition) at 10uM” value came to 44.3%. The value for `CCCCCOc1ccc(/C=c2\sc3nc(=O)c(-c4ccccc4)nn3c2=O)cc1OC` was 1.89%. Take `CC(NC(=O)COc1ccc([N+](=O)[O-])cc1)c1ccccc1` (centres unmarked): the “hERG current change (%, negative = inhibition) at 10uM” value was -34.5%. For `Cc1cccc(NC(=O)C2CCN(S(=O)(=O)c3c(C)c(C)cc(C)c3C)CC2)n1` the value was -1.12%. In the case of `COc1ccccc1NC(=O)CCc1nc(-c2cccs2)no1`, the “hERG current change (%, negative = inhibition) at 10uM” value is -16.9%. Turning to `CC1CCCCN1CC(O)c1c[nH]c2ccccc12` (centres unmarked), the “hERG current change (%, negative = inhibition) at 10uM” value was determined as 8.14%. Turning to `CCc1ccc(C(=O)C[n+]2cccc3cc(OC)ccc32)cc1.[Br-]`, the “hERG current change (%, negative = inhibition) at 10uM” value was -11.5%. For the compound `O=C(Cn1cnc2sc3c(c2c1=O)CCCC3)NCC(=O)Nc1c(F)cc(F)cc1Br`, the “hERG current change (%, negative = inhibition) at 10uM” value is given as 14.7%. On to `COc1ccc(CNc2cc(C)ccn2)c(O)c1`, for which the “hERG current change (%, negative = inhibition) at 10uM” value was 13.3%. Take `CC(=O)Nc1ccccc1C(=O)C(=O)Nc1cccc(C(=O)N2CCC3(CC2)OCCO3)c1`: the “hERG current change (%, negative = inhibition) at 10uM” value is on record as 11.3%. The value for `Cc1ccc(NC(=O)CCN2C(=O)C3CC=CCC3C2=O)cc1Cl` (centres unmarked) was -10.9%; that for `C=CCN1C(=O)C2(OCCCO2)c2cccc(Cl)c21` was 5.1%; that for `COc1ccc(C(=O)N/N=C2\SCC(=O)N2Cc2ccc3c(c2)OCO3)c(OC)c1` was 3.31%.

With `O=C(NCCC(=O)N1CCC2(CC1)NCCc1[nH]cnc12)c1cccc(Br)c1`, the “hERG current change (%, negative = inhibition) at 10uM” value worked out at 1.5%. For `CCCC(=O)NC(=S)N1CCN(c2ccc([N+](=O)[O-])cc2)CC1` the value was -20.7%; for `COc1ccc(C2(c3cccc(O)c3OC)CCN(C(C)=O)CC2)cc1O`, 11%. `O=C(NCc1ccco1)c1ccc(Cn2c(=O)c3sccc3n(Cc3ccc(F)cc3)c2=O)cc1`: the “hERG current change (%, negative = inhibition) at 10uM” value is reported as 13.6%. For `Nc1ccc(-c2nc3cc([N+](=O)[O-])ccc3o2)cc1`, the “hERG current change (%, negative = inhibition) at 10uM” value was found to be 14.4%.

Turning to `CCOc1ccc(C(=O)COC(C)=O)cc1`, the “hERG current change (%, negative = inhibition) at 10uM” value was 6.75%.

Take `CSc1ncc(Cl)c(C(=O)Nc2nnc(SC/C=C/c3ccccc3)s2)n1`: the “hERG current change (%, negative = inhibition) at 10uM” value is -30%. The value for `COC(=O)NCCOC(=O)N(O)c1ccc(Br)cc1` was 14.7%; that for `COc1ccc(C2COc3cc(O)ccc3C2)c(OC)c1O` (centres unmarked) was -13.1%; that for `O=C(Cc1c(F)cccc1Cl)Nc1ccon1` was -0.744%. For the compound `CC(=O)Nc1ccc(NC(=S)NC(=O)c2ccc([N+](=O)[O-])cc2)cc1`, the “hERG current change (%, negative = inhibition) at 10uM” value is reported as 11.3%. Regarding `CCOC(=O)c1c(C)cc(=O)oc1C`, the “hERG current change (%, negative = inhibition) at 10uM” value was determined as 7.92%. For `COc1ccc(CNC(=O)COC(=O)c2ccc(Br)cc2)cc1`, the “hERG current change (%, negative = inhibition) at 10uM” value came out at 17.3%.

Turning to `CCOC(=O)C1CCCN(C(=O)C(=O)Nc2ccc3nc4n(c(=O)c3c2)CCCCC4)C1` (centres unmarked), the “hERG current change (%, negative = inhibition) at 10uM” value was -1.21%. In the case of `CCOc1ccc(C2=Nc3ccccc3C(c3ccc(N4CCOCC4)cc3)=NN2)cc1`, the “hERG current change (%, negative = inhibition) at 10uM” value is -5.89%. For `Cc1onc(-c2ccccc2Cl)c1C(=O)Nc1cccc2nsnc12`, the “hERG current change (%, negative = inhibition) at 10uM” value is on record as 8.65%. Regarding `C/C(=N\NC(=O)Cc1c(C)[nH][nH]c1=O)c1ccc(Cl)c(Cl)c1`, the “hERG current change (%, negative = inhibition) at 10uM” value came out at 11.9%. With `O=c1c2c(nc3c(-c4cccc(Br)c4)c[nH]n13)CCCC2`, the “hERG current change (%, negative = inhibition) at 10uM” value is given as 6.12%.

Take `O=C(N/N=C\C=C\c1ccc2c(c1)OCO2)c1ccc(F)cc1`: the “hERG current change (%, negative = inhibition) at 10uM” value came to 1.32%. For `COc1ccc(C(C)=O)cc1CSc1nc(C)cc(C)n1` the value was 5.31%; for `Cc1ccc(C2/C(=C(\O)c3ccc4c(c3)OCCO4)C(=O)C(=O)N2Cc2cccnc2)cc1` (centres unmarked), 9.66%; for `CC1CCN(C(=O)COC(=O)c2cccc(NS(=O)(=O)c3ccccc3)c2)CC1`, -18.5%. Regarding `COC(=O)[C@]1(C)N[C@H](c2ccc(-c3ccc(F)cc3)cc2)[C@@H]2C(=O)N(C)C(=O)[C@@H]21.O=C(O)C(F)(F)F`, the “hERG current change (%, negative = inhibition) at 10uM” value was -1.3%. On to `Cc1c(C)n(Cc2ccc(Cl)cc2)c2ccc(C(=O)NCCCN3CCOCC3)cc12`, for which the “hERG current change (%, negative = inhibition) at 10uM” value is reported as -16.9%. `CC(C)c1ccc(NC(=O)[C@@H](NC(=O)N2CC(=O)Nc3ccccc32)C(C)C)cc1`: the “hERG current change (%, negative = inhibition) at 10uM” value is recorded as 6.86%. As to `CC(=O)Nc1ccc(S(=O)(=O)Nc2ccc(Cl)nn2)cc1`, the “hERG current change (%, negative = inhibition) at 10uM” value is 2.51%. The value for `Cc1cccc(-c2nnc(SCC(=O)NC3CC3)n2C)c1` was 15.7%. Regarding `O=C(COc1ccccc1)NCCc1cn2ccsc2n1`, the “hERG current change (%, negative = inhibition) at 10uM” value is listed as 4.18%. `CC(C)(C)OC(=O)N1CCC(c2c(C(=O)N3CCN(C(=O)c4ccco4)CC3)cnn2-c2cccc(Cl)c2)CC1`: the “hERG current change (%, negative = inhibition) at 10uM” value is given as -65.6%.
